# Measured values taken from PubChem BioAssay (NCI).
#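 Cultured in 96-well plates, cells were exposed to test compound for 48 hours across five concentrations. Abbreviation: GI50, concentration required for 50% inhibition of growth. TGI: concentration producing complete growth inhibition.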
# Tested on: NCI-H322M lung
# Test: NCI-60 cell line screen, 48 h
smiles,measurement,value
NS(=O)(=O)c1ccc(NC(=O)CSc2ccc(-c3ccc(Cl)cc3)nn2)c(Br)c1,GI50,14.7 µM
same,TGI,79 µM
